{
  "source": "paper PMC7819943",
  "about": "“Rice protein-binding microarrays: a tool to detect cis-acting elements near promoter regions in rice”",
  "note": "The list shows a part of the results.",
  "data": [
    {"biological_target": "T1, OsWOX13 (Oryza sativa, UniProt Q5QMM3 1-267)", "T1 sequence": "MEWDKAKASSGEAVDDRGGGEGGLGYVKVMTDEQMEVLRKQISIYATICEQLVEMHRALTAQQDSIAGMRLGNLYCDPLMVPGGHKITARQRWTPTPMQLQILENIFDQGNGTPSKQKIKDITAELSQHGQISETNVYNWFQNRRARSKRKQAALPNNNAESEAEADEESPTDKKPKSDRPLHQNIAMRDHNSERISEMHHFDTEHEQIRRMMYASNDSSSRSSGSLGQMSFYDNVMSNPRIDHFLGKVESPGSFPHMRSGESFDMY", "experiment": "protein-binding microarray (RPBM); PBS, 2% BSA, 51.3 ng/ul salmon testes DNA, 50 uM zinc acetate, 200 nM TF, 25 C, 1 h; high values mean tight binding", "conditions": "protein: recombinant; tags: N-terminal polyhistidine and DsRed monomer fusion (pET32a); label: CyDye5-dUTP incorporated in the synthesized complementary strand; 3' TTTTT single-stranded linker to array surface; dsDNA, one strand shown", "procedure,_shortened": "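The binding signal is fluorescence intensity per feature, in arbitrary units, read on an Axon 4000B scanner. Polyhistidine- and DsRed-tagged transcription factors (N-terminal fusions) from E. coli BL21-CodonPlus were purified on Ni–NTA and applied at 200 nM for 1 h at 25 °C to a double-stranded, BSA-blocked custom Agilent array in buffer with 50 µM zinc acetate.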", "values": [
      {"sequence": "ACTTGACTCATTAATAGCAAACAACAGTATTACATACGTACGGAGTCACCTAGTGCAG", "binding signal": "4070 fluorescence intensity (a.u.)"},
      {"sequence": "CCTAGATTGGTGTAGTAGGTCAGGCTTGGTAGCACATGCGCGGAGTCACCTAGTGCAG", "binding signal": "16400 fluorescence intensity (a.u.)"},
      {"sequence": "GGGAATTTGTATTTAAATTTTGGTTTATAAAATTTATTCGCGGAGTCACCTAGTGCAG", "binding signal": "9720 fluorescence intensity (a.u.)"},
      {"sequence": "ATAATTGCTTGTAGTTGAAGCCAGTGAGGAAAATGTTGCTCGGAGTCACCTAGTGCAG", "binding signal": "9690 fluorescence intensity (a.u.)"},
      {"sequence": "GGGTAATCATTACCCATTCCCATATCCATACCCACATTATCGGAGTCACCTAGTGCAG", "binding signal": "6150 fluorescence intensity (a.u.)"},
      {"sequence": "TCATTAATTTTATTAATAGACCATTTCTAAAAGTATTTCACGGAGTCACCTAGTGCAG", "binding signal": "11000 fluorescence intensity (a.u.)"},
      {"sequence": "TGCCTAGATGTGTTGATTATTTTCTGTATGTAGAAAGGAACGGAGTCACCTAGTGCAG", "binding signal": "6040 fluorescence intensity (a.u.)"},
      {"sequence": "TTAAAATTGATTTTAGGGGATTTTCATCTGAGCTTATGTTCGGAGTCACCTAGTGCAG", "binding signal": "55800 fluorescence intensity (a.u.)"},
      {"sequence": "TTAGATAGATATATATGTATAGATTCATTAACAACAATATCGGAGTCACCTAGTGCAG", "binding signal": "7550 fluorescence intensity (a.u.)"},
      {"sequence": "ATCTAGCTCAATTGGCTAATTACGTGCCCAACTCAACTGCCGGAGTCACCTAGTGCAG", "binding signal": "7920 fluorescence intensity (a.u.)"},
      {"sequence": "CGGTCGTGGAATTGGCACTAATTAATAACCTGAGGTCATCCGGAGTCACCTAGTGCAG", "binding signal": "5590 fluorescence intensity (a.u.)"},
      {"sequence": "AGCGCGTACAAAATCGGAGCTGATTGCCTGACTATCTCTGCGGAGTCACCTAGTGCAG", "binding signal": "4000 fluorescence intensity (a.u.)"},
      {"sequence": "CATTAATGTTCTTTGTCTAATTATTGACTAGAGGAATATGCGGAGTCACCTAGTGCAG", "binding signal": "10100 fluorescence intensity (a.u.)"},
      {"sequence": "TGAGAAAGCTAATTGAGATCGCTAGCTAACTAATGACCATCGGAGTCACCTAGTGCAG", "binding signal": "8160 fluorescence intensity (a.u.)"},
      {"sequence": "TACTAAACATAACTGGTTTTCCTCAACTTCACATACCCCACGGAGTCACCTAGTGCAG", "binding signal": "4360 fluorescence intensity (a.u.)"},
      {"sequence": "CTAGCTAGATAGATAGTAGATAGATCCTCACGAGTGGTTTCGGAGTCACCTAGTGCAG", "binding signal": "4760 fluorescence intensity (a.u.)"},
      {"sequence": "GTTTAGACAATGTGCTAATTGTCCTGTATAGCTGTAAGTACGGAGTCACCTAGTGCAG", "binding signal": "11300 fluorescence intensity (a.u.)"},
      {"sequence": "AACATATATTTTAATTGATGGGCTGGTAGCATTTTGTTTTCGGAGTCACCTAGTGCAG", "binding signal": "21800 fluorescence intensity (a.u.)"},
      {"sequence": "TATATATATATATATATATTGTTGAACGGTTTGTGCTCTGCGGAGTCACCTAGTGCAG", "binding signal": "13000 fluorescence intensity (a.u.)"},
      {"sequence": "GACCACAATTAATTACCACTGCTAAGCTCCATCCTCCATGCGGAGTCACCTAGTGCAG", "binding signal": "14500 fluorescence intensity (a.u.)"},
      {"sequence": "AGCAAATTGTTTGGTGGAACTAAAGTAAACTCGATCTCTTCGGAGTCACCTAGTGCAG", "binding signal": "5410 fluorescence intensity (a.u.)"},
      {"sequence": "ATCAATTTTAGGTGATTGAGAAAGACTTGCCGGATTTGATCGGAGTCACCTAGTGCAG", "binding signal": "43100 fluorescence intensity (a.u.)"},
      {"sequence": "GCTGACTGACTGACTGACTCCTGACCGCCTTTAACTTTTACGGAGTCACCTAGTGCAG", "binding signal": "3880 fluorescence intensity (a.u.)"},
      {"sequence": "TGGTTTTGATTGATCGATATTGCTTTTGTTTACCATTGCCCGGAGTCACCTAGTGCAG", "binding signal": "49800 fluorescence intensity (a.u.)"},
      {"sequence": "GTAATTGGCAGGTGTACGTTCGTGTTCATATAGAATAGAGCGGAGTCACCTAGTGCAG", "binding signal": "10200 fluorescence intensity (a.u.)"},
      {"sequence": "ACGAGGATGACTGGCTGACTGGTACTTTGCATCGGATCATCGGAGTCACCTAGTGCAG", "binding signal": "10200 fluorescence intensity (a.u.)"},
      {"sequence": "GGCCTTACCTGCTACTAATTAACACCCAGACCGGCCCATGCGGAGTCACCTAGTGCAG", "binding signal": "3370 fluorescence intensity (a.u.)"},
      {"sequence": "ACATAATCATTGGTTGAGTCCTAGGCTAAGATAATTTCGACGGAGTCACCTAGTGCAG", "binding signal": "7330 fluorescence intensity (a.u.)"},
      {"sequence": "CCTTTGTTATGATTATTACTAGTACGCGTCATGACAGAAGCGGAGTCACCTAGTGCAG", "binding signal": "4270 fluorescence intensity (a.u.)"},
      {"sequence": "TATTTAAATTAGAAATTCAATTAAAATTCTCCTCCCTTGTCGGAGTCACCTAGTGCAG", "binding signal": "20700 fluorescence intensity (a.u.)"},
      {"sequence": "GATGAGTGGTGATTGGTGAAGATATCTGGTGGTTTTGGGACGGAGTCACCTAGTGCAG", "binding signal": "32400 fluorescence intensity (a.u.)"},
      {"sequence": "GGGTATAGATTGGTATAACAACTTGCGAATCGTTTAATCCCGGAGTCACCTAGTGCAG", "binding signal": "24300 fluorescence intensity (a.u.)"},
      {"sequence": "GTCAAATCATTATCATTATTCACTCAAACAGATGTCCTTACGGAGTCACCTAGTGCAG", "binding signal": "9530 fluorescence intensity (a.u.)"},
      {"sequence": "TCTAAATTTTGATCATCAGTATCCAACTTTGATTGTTATCCGGAGTCACCTAGTGCAG", "binding signal": "21200 fluorescence intensity (a.u.)"},
      {"sequence": "CGGCCCGTCAATCTGTTCTCTCAATCCAGAAAGAATAATACGGAGTCACCTAGTGCAG", "binding signal": "3360 fluorescence intensity (a.u.)"},
      {"sequence": "CTTAATAGTCTCTGACAAAGCAATAAAATCAAGGTGATGTCGGAGTCACCTAGTGCAG", "binding signal": "6020 fluorescence intensity (a.u.)"},
      {"sequence": "ATAAATAGAATGCTGACTGGACTGCCACGCGTACGCCATGCGGAGTCACCTAGTGCAG", "binding signal": "29000 fluorescence intensity (a.u.)"},
      {"sequence": "TATAGTTGATTTACAGTTTTAGGATACGTCATATTCAACACGGAGTCACCTAGTGCAG", "binding signal": "25900 fluorescence intensity (a.u.)"},
      {"sequence": "ATCAAACTTTTATTACATTCAAATACAAATAGTTTGCTGACGGAGTCACCTAGTGCAG", "binding signal": "3960 fluorescence intensity (a.u.)"},
      {"sequence": "CTAATTAATACATGATTAGCCTATGTGAGGTTACAGTAAACGGAGTCACCTAGTGCAG", "binding signal": "33900 fluorescence intensity (a.u.)"},
      {"sequence": "ATACTACTTCACATCAATTAAATAAGCTGTGTATACTTGTCGGAGTCACCTAGTGCAG", "binding signal": "3880 fluorescence intensity (a.u.)"},
      {"sequence": "AGTTAATTAAGGAAGTAAGAAGAAGAAATACCAATAAAGACGGAGTCACCTAGTGCAG", "binding signal": "4470 fluorescence intensity (a.u.)"}
    ]}
  ]
}
